Reference: paper PMC4336329 (PLoS ONE, 2015)
In all, about 310,000 compounds went through this assay and about 2,200 (0.71%) showed an effect of 50% or more. The effect is printed as a negative number. This is one part of the list.

Each compound was assayed against human ether-à-go-go-related gene (hERG) potassium channel (human, UniProt Q12809) (assay: primary screen, population patch clamp on CHO cells stably expressing hERG).
Chain of human ether-à-go-go-related gene (hERG) potassium channel (Q12809 whole entry, looked up): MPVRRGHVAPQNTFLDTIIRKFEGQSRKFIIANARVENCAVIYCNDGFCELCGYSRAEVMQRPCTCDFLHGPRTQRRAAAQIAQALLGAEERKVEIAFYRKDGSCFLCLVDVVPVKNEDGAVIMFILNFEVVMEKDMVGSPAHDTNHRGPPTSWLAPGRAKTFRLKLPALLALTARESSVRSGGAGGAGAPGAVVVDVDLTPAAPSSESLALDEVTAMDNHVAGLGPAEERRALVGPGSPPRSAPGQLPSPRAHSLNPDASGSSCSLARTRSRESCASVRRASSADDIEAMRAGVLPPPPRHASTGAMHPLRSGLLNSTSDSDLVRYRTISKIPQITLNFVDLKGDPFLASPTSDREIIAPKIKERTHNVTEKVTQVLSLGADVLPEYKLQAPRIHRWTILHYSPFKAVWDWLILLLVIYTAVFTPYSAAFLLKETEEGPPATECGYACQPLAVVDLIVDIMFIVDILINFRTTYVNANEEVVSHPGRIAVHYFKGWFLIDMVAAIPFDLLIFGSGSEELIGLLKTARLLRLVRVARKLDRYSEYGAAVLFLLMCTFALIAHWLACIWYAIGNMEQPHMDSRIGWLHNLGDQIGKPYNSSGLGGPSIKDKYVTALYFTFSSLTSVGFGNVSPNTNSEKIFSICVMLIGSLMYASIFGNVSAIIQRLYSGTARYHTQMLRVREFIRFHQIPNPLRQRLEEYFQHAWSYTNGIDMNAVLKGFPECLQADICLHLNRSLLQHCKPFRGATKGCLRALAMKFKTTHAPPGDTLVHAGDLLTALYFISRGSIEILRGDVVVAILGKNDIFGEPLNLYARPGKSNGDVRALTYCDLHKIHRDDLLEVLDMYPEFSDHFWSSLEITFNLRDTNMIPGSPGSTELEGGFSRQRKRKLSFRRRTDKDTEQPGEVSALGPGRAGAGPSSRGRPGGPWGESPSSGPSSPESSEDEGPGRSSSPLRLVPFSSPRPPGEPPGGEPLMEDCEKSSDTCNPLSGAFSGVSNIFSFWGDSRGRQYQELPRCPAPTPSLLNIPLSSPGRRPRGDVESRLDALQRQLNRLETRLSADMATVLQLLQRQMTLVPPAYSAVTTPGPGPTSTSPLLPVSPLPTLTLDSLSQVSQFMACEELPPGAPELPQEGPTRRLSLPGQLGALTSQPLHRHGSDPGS

Row | SMILES | hERG current change (%, negative = inhibition) at 1uM
1 | COCCCn1c(O)c(/C=C2\N=C(C#N)C(=Nc3ccc(C)cc3)O2)sc1=S | 17%
2 | CN1CCC2(CC1)N=C(c1ccc(F)cc1)C(=S)N2 | 5.62%
3 | CCOC(=O)C1(Cc2ccc(OC)cc2)CCN(C(=O)c2cc(C)nn2C)CC1 | -20.2%
4 | CNC(=O)CN1C(=O)COc2ccc(S(=O)(=O)N3CCCCCC3)cc21 | 19.3%
5 | CCCCCOC(=O)Cc1c(C)nc(-c2ccccc2)[nH]c1=O | 9.71%
6 | O=C(NCCc1ccncc1)Nc1cccc(Cl)c1 | 13.3%
7 | COc1ccc(OC)c(S(=O)(=O)N2CCCCCC2)c1 | 8.94%
8 | CCOc1ccc(NC(N)=O)cc1 | 7.81%
9 | Cn1c(=O)c2c(nc(Oc3ccccc3)n2C)n(C)c1=O | 2.92%
10 | O=C1C2C3C=CC(C3)C2C(=O)N1c1n[nH]c(CCc2ccccc2)n1 (stereo not shown) | 14.5%
11 | CN(C(=O)COC(=O)C1CCN(S(=O)(=O)c2c(Cl)cccc2Cl)CC1)c1ccccc1 | 3.59%
12 | COCCn1c(SCC(=O)Nc2ccc3c(c2)OCCO3)nc2c(c1=O)SC(C)C2 (stereo not shown) | 6.73%
13 | Cc1nc2ccccn2c(=O)c1CCN1CCC(C(=O)c2ccc(F)cc2)CC1 | -66.2%
14 | Cc1c(C(=O)NCCSCc2ccccc2)cccc1[N+](=O)[O-] | 13.2%
15 | O=C(NCc1ccccc1)c1ccc2c(=O)[nH]c3c(C(=O)NCC4CCCO4)sc(=S)n3c2c1 (stereo not shown) | 6.43%
16 | COc1ccc(OC)c(S(=O)(=O)N2CCC(C(=O)NC3CCCC3)CC2)c1 | 9.23%
17 | Brc1ccc(-c2nnc(-c3ccc4c(c3)OCO4)o2)o1 | 9.81%
18 | CCN(CC)c1ccc(/C=N/NC(=O)C(O)(c2ccccc2)c2ccccc2)o1 | 1.15%
19 | O=C(NC(=O)c1ccc(Cl)cc1)OC1CCCCC1 | 3.28%
20 | O=C(Nc1ccc([N+](=O)[O-])cc1)C1CC12CCC2 (stereo not shown) | 8.41%
21 | O=C(CC1CCCC1)NCCS(=O)(=O)N1CCN(c2ccccc2F)CC1 | 5.53%
22 | COc1ccc(C(=O)N(C)C2CCCCC2)cc1S(=O)(=O)N1CCOCC1 | 3.56%
23 | CC(C)C[C@H](NC(=O)NCc1ccc(Cl)cc1)C(=O)O | 9.7%
24 | Cc1cc(C)n2nc(SCCCC(=O)c3ccccc3)nc2n1 | 6.04%
25 | COc1ccccc1N(CC(=O)NC1CCCCC1)C(=O)CNC(=O)c1cccs1 | 10.5%
